# Test results from the BET-seq Pho4 binding data (Le et al. 2018).
# The list shows a part of the results. These are noisy estimates, calculated here from bound and input reads.
# Biological target: T1, Pho4 (S. cerevisiae) (UniProt P07270)
# T1 sequence: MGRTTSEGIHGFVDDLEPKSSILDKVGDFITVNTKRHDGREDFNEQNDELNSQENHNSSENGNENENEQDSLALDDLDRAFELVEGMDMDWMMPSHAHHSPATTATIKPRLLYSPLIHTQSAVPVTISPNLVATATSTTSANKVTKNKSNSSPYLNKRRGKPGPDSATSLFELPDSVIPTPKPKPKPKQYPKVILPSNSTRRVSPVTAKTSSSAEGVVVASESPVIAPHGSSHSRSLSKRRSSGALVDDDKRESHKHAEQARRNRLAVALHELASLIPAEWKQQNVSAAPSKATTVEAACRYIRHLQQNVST
# Assay: relative binding free energy (BET-seq); higher = weaker binding
# Settings: reference: library average
row,Sequence,relative binding free energy [kcal/mol]
1,GGGTACACGTGGGTAG,0.08
2,AGGTACACGTGCTGAG,0.03
3,TATATCACGTGGTTCA,0.12
4,CCGTTCACGTGTAGGG,0.18
5,TACTTCACGTGGATTT,0.34
6,TTAACCACGTGGTTTA,-0.06
7,TTACGCACGTGTTAAT,-0.09
8,GGAGGCACGTGGATGG,-0.03
9,GATAACACGTGGTATT,0.04
10,TATAACACGTGTTTTT,-0.06
11,CTCGTCACGTGTGGAG,0.14
12,ATATCCACGTGGGAGT,-0.02
13,TGAGCCACGTGGGGGA,-0.19
14,TTTTACACGTGTAACG,0.19
15,GGGTTCACGTGAGTTA,0.45
16,GGTCCCACGTGGGGTG,-0.32
17,CTTTGCACGTGCGTTT,0.02
18,GGGGACACGTGTAGGC,0.07
19,AGTAGCACGTGTTATT,-0.05
20,GGCGTCACGTGGTATG,0.09
21,GGGTCCACGTGTGTCG,0.1
22,ATAGGCACGTGGGGTA,-0.25
23,GGGTACACGTGGCGTC,0.01
24,CGTTTCACGTGATATG,0.21
25,GGACTCACGTGTGGTG,0.22

row,Sequence,relative binding free energy [kcal/mol]
1,GGTAACACGTGAGAGT,0.33
2,TTCGTCACGTGGTTGC,0.08
3,TGCATCACGTGTGTAG,0.15
4,AGTTACACGTGAATTG,0.21
5,GGGGACACGTGGGGGT,-0.07
6,AAAGTCACGTGGCAGG,0.02
7,AAAGGCACGTGTCGTT,-0.14
8,TGTGTCACGTGTCGGA,0.21
9,CGTAGCACGTGCGTGT,-0.16
10,CAATTCACGTGTGAGT,0.28
11,TGCGACACGTGTTGTA,0
12,AGGTACACGTGGTTTG,0.09
13,TGCAGCACGTGAGGAG,0.21
14,AATAACACGTGGGCGT,-0.16
15,TGCCGCACGTGGGGGG,-0.22
16,GTTGTCACGTGGTGAT,0.21
17,TTTGGCACGTGCGTAT,-0.13
18,AATCGCACGTGGTATG,-0.1
19,GATCGCACGTGTGGGC,-0.04
20,GTGCTCACGTGCGCGG,0.04
21,AGGAGCACGTGGTTCT,-0.14
22,TGGTTCACGTGTGCGG,0.28
23,TTTTGCACGTGTTTGT,0.02
24,AATTTCACGTGAGGGG,0.4
25,TGCAGCACGTGGGGGG,-0.17

row,Sequence,relative binding free energy [kcal/mol]
1,TGATGCACGTGGGAGA,-0.04
2,AATGACACGTGTCTGT,-0.03
3,TAGAACACGTGGTTAG,-0.03
4,ATAAGCACGTGATTGG,0
5,GTAGGCACGTGGATTC,0.05
6,GGTGTCACGTGTAGGT,0.11
7,GCTGACACGTGTGGTT,0.04
8,TTGAGCACGTGCGGGA,-0.14
9,TGAGGCACGTGCGTCG,-0.1
10,TATTGCACGTGTGGAT,0.14
11,TGGAGCACGTGGTCGT,-0.22
12,TGGTTCACGTGTTCCT,0.34
13,TACTTCACGTGGATTG,0.23
14,TAGAGCACGTGGGTGA,-0.25
15,GTCTTCACGTGCTGGG,0.34
16,TAGATCACGTGTTAAT,0.24
17,TGTTTCACGTGGTTAC,0.22
18,CGAAGCACGTGGGTAG,-0.21
19,TGCTGCACGTGGCAGG,-0.08
20,CGGATCACGTGAGGTG,0.29
21,AGAAGCACGTGAATGG,0.21
22,ATTGTCACGTGCGTAA,-0.09
23,ACAGACACGTGGTGGT,-0.07
24,TATTACACGTGAGTAA,0.29
25,TTTAACACGTGAGTAT,0.28

row,Sequence,relative binding free energy [kcal/mol]
1,TAGGGCACGTGATCTG,-0.05
2,TGGTACACGTGAAATG,0.22
3,TGTCTCACGTGATGGA,0.31
4,ATCTGCACGTGTGTGA,0.04
5,GTGTTCACGTGCTGTG,0.3
6,AAAAGCACGTGTGGAG,0.19
7,GGGGTCACGTGCCAGG,0.03
8,CTCGGCACGTGGGTCG,-0.13
9,AGGTGCACGTGGTCGA,-0.25
10,CGATGCACGTGGGTGG,-0.28
11,TGGGTCACGTGTTACT,0.13
12,GAGGGCACGTGGAAAG,0.1
13,GATGTCACGTGTAGCT,0.12
14,ATGTGCACGTGCTTGG,-0.01
15,GTTGACACGTGGCAGT,-0.05
16,CATTGCACGTGATTTG,0.15
17,AAACACACGTGGTGGT,0.1
18,GGTTTCACGTGGTTAA,0.23
19,TATTTCACGTGAGGGT,0.33
20,TGTTTCACGTGGTCGG,0.24
21,GGTGTCACGTGTGAAG,0.06
22,GCGCTCACGTGGTTGT,0.17
23,TCTATCACGTGGGTAT,0.05
24,CGGTTCACGTGTATTG,0.13
25,TGCCGCACGTGGGTTA,-0.09

row,Sequence,relative binding free energy [kcal/mol]
1,TTGCTCACGTGTGTTG,0.06
2,TTTTGCACGTGCATAG,0
3,TGAGTCACGTGTGGTC,0.09
4,TTATTCACGTGTATCA,0.25
5,GGGTTCACGTGGGCCT,0.18
6,TACTGCACGTGGTCTT,-0.01
7,GGGTGCACGTGTCTAG,0.06
8,TATGGCACGTGAGTAG,0.09
9,TCGTGCACGTGCTAGG,-0.11
10,GGGCTCACGTGGAAGG,0.33
11,GTTGACACGTGAGTTG,0.34
12,TATCTCACGTGCGTTG,0.15
13,AGGGTCACGTGTAGTG,0.21
14,TATTACACGTGGTGGT,0.04
15,TACGCCACGTGGGAGG,-0.13
16,ATATGCACGTGGGTTT,-0.11
17,ACGTACACGTGGTATG,-0.09
18,AGATTCACGTGGTGAG,0.04
19,GTATCCACGTGGGGTG,-0.17
20,TGTGTCACGTGTTCCA,0.15
21,TCTTCCACGTGGGGGT,-0.21
22,CTGTCCACGTGGTGTG,-0.07
23,TTTAGCACGTGAAAAT,0.18
24,GGAGTCACGTGGGTTA,0.04
25,TTTCTCACGTGGTTGA,0.2

row,Sequence,relative binding free energy [kcal/mol]
1,GTGAGCACGTGGTATC,-0.06
2,GGTGGCACGTGGGGTC,-0.15
3,TTGAGCACGTGAGGGT,0.07
4,GGTATCACGTGGAGTT,0.2
5,AAATGCACGTGTTAGG,0.05
6,AATAGCACGTGCGGGG,-0.05
7,GGCAGCACGTGTAGGC,0.03
8,AGTCTCACGTGATTTA,0.33
9,TGCATCACGTGAAGTG,0.35
10,AGGGTCACGTGCAATT,0.1
11,GGCGGCACGTGTCTTT,0.05
12,TGTGTCACGTGGTCCT,0.01
13,GGCAACACGTGGTGGG,-0.08
14,GCATTCACGTGGGTCG,0.32
15,ATACGCACGTGGGTCG,-0.16
16,GTAGGCACGTGATGCA,0.02
17,ATGTTCACGTGATTAA,0.17
18,GTTTTCACGTGTCAGA,0.22
19,TGTGACACGTGCATTT,0.06
20,GATTGCACGTGCTTGT,0.02
21,TATAACACGTGGGGTG,-0.28
